Experimental data: publication PMC8363609
No constants are given. Whether binding was seen depends on the method and setting. Binding seen in cells or lysates may run through a third protein. Some results given as binding are weak or reduced against the parent protein; the word gives no strength. Where a sequence is shown, tags or fusion partners need not be part of it. Each block holds one binder with its values, some of them ahead of it.

Tests used:
[1] = target: T1, MYC-tagged CENTLEIN (mouse) (UniProt A2AM05); experiment: co-IP; HEK293T cells co-transfected with two tagged plasmids, collected after 24 h; lysed in ELB buffer (50 mM HEPES, 250 mM NaCl, 0.1% NP-40); IP with anti-GFP, anti-FLAG or anti-MYC antibody and Dynabeads-protein-G at 4 °C; immunoblot for the tags
T1 sequence: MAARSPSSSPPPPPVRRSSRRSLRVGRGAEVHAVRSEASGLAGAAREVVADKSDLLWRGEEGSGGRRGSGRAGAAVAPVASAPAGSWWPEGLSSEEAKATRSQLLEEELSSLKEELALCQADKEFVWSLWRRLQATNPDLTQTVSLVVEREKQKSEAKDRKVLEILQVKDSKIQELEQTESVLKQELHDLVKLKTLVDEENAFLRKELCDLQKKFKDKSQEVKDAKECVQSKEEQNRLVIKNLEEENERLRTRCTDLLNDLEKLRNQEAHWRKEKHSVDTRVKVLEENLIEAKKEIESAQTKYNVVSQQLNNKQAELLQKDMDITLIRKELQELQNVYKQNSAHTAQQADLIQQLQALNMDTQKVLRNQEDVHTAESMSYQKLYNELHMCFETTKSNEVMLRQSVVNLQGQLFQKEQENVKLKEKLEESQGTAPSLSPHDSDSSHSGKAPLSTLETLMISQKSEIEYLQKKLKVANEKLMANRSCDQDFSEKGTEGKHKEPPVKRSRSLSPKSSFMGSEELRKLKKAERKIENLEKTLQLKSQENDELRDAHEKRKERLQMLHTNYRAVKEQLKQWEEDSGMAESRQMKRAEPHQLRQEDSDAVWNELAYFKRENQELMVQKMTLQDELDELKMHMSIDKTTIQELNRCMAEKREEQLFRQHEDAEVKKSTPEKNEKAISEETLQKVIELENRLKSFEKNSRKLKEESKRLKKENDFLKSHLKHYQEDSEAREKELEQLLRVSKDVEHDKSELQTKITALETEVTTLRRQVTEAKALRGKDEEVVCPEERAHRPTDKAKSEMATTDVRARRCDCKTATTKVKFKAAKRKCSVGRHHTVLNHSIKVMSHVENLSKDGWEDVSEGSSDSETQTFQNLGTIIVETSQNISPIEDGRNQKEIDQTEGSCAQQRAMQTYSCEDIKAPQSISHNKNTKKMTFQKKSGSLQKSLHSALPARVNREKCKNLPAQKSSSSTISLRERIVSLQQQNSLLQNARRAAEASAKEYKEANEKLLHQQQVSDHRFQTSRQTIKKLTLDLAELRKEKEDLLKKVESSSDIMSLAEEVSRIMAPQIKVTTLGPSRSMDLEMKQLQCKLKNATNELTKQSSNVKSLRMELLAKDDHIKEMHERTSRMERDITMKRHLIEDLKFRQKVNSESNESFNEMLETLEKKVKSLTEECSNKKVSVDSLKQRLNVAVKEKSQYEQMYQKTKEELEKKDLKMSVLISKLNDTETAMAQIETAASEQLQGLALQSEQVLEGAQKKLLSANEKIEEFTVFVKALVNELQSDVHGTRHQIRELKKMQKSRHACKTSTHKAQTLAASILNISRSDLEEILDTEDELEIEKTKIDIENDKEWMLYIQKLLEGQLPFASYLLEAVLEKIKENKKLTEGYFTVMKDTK

GST-SUN5 193–373aa = target: T2, GST-SUN5 193–373aa (UniProt Q9DA32); experiment: pull-down; GST-tagged fragment from E. coli held on Glutathione Sepharose 4B, incubated with MBP-tagged fragment from E. coli at 4 °C for 2 h; washed with 50 mM Tris pH 7.4, 150 mM KCl, 2 mM MgCl2, 0.1% Triton X-100; immunoblot with anti-GST and anti-MBP; only the target purified
T2 sequence: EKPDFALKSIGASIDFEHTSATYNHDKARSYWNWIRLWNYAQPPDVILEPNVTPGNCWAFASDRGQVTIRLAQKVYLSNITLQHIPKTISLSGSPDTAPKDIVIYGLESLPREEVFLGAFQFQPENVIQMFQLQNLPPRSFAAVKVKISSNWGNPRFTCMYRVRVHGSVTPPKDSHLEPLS

GST-PMFBP1 750–1023aa = target: T3, GST-PMFBP1 750–1023aa (UniProt Q9WVQ0); experiment: as above
T3 sequence: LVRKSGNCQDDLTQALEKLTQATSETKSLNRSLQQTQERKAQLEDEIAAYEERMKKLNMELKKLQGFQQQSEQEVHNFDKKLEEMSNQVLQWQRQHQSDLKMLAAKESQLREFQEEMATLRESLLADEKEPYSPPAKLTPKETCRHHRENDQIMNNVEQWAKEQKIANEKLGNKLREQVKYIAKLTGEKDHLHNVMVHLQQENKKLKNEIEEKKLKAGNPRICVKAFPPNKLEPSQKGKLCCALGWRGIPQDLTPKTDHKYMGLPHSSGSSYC

- binding [1]: binds
B1: GFP-tagged PMFBP1 (protein, UniProt Q9WVQ0 1-1022)
chain: MLKLKGELRTAKGLKNEAGERDRDVSNLNSKLLSLQLDIKNLHDVCKRQGKTLQENQLCVEEAMLKANHNKKQAQTLVFTDNQMDFRVNKQYHLRQLQQLKKKLLTLQQELEFRTQELQASYCSLLQYQSILEKQTSDLLVLHRHCKLKEDEVILYEEEMGNHSKSTGEKLHLAQEQLALAGDKILSLERSLNLYRDKYQTSLSNIELLECQVKMLEGELSGLIGQDPENKGDHPKVRIYTSPCVIQEHQETLKRLSEVWQKVSEQDDLIQELRNKLACSNSLVLEREEALIKLQAEFASYTATHRHPPTSSEDCEDITKILKHLQEQKDSQCLHVEEYQNLVKDLRMELEAVSEQKKKIMKDMMKLELDLHGLREETSCVIEKKDKETVFLQYRLQDLQQQYTESQKLSLKKDKLLQDKDERLHELEKNLMQVQNSLREKEAELEKLQCTTKELDTSLQEARQSTSKIDCEALRAEIQKLKDSLEEAREQLKVSDQNLTQSKEEAHLSASSLEDAHRKIENCLLQDKQKEEVIKDLQSQLHKLQKESSKIEEERKHNRQRLQELSSELSEGQRRLSNAEKEKSLLQKTLDEDEKKIDELFHSTQVSEQKQRELTNSIRKLEEELLEIKGLLEEKREQLKKSKEQEKALEEEIEALRQEAKRKEKMAKEHLRKLDEEKENLQAELTSRSSHLDSSLNKYNSSQKVIQELNAEIARQKDSIMILQTQLDSAIQKEKNCFQNMVSKEAYEELVRKSGNCQDDLTQALEKLTQATSETKSLNRSLQQTQERKAQLEDEIAAYEERMKKLNMELKKLQGFQQQSEQEVHNFDKKLEEMSNQVLQWQRQHQSDLKMLAAKESQLREFQEEMATLRESLLADEKEPYSPPAKLTPKETCRHHRENDQIMNNVEQWAKEQKIANEKLGNKLREQVKYIAKLTGEKDHLHNVMVHLQQENKKLKNEIEEKKLKAGNPRICVKAFPPNKLEPSQKGKLCCALGWRGIPQDLTPKTDHKYMGLPHSSGSSYC

- binding (GST-SUN5 193–373aa): binds
B2: MBP-CENTLEIN 971–1396aa (domain or fragment, UniProt A2AM05 971-1396)
chain: STISLRERIVSLQQQNSLLQNARRAAEASAKEYKEANEKLLHQQQVSDHRFQTSRQTIKKLTLDLAELRKEKEDLLKKVESSSDIMSLAEEVSRIMAPQIKVTTLGPSRSMDLEMKQLQCKLKNATNELTKQSSNVKSLRMELLAKDDHIKEMHERTSRMERDITMKRHLIEDLKFRQKVNSESNESFNEMLETLEKKVKSLTEECSNKKVSVDSLKQRLNVAVKEKSQYEQMYQKTKEELEKKDLKMSVLISKLNDTETAMAQIETAASEQLQGLALQSEQVLEGAQKKLLSANEKIEEFTVFVKALVNELQSDVHGTRHQIRELKKMQKSRHACKTSTHKAQTLAASILNISRSDLEEILDTEDELEIEKTKIDIENDKEWMLYIQKLLEGQLPFASYLLEAVLEKIKENKKLTEGYFTVMKDT

- binding (GST-PMFBP1 750–1023aa): binds
B3: MBP-CENTLEIN 601–970aa (domain or fragment, UniProt A2AM05 601-970)
chain: SDAVWNELAYFKRENQELMVQKMTLQDELDELKMHMSIDKTTIQELNRCMAEKREEQLFRQHEDAEVKKSTPEKNEKAISEETLQKVIELENRLKSFEKNSRKLKEESKRLKKENDFLKSHLKHYQEDSEAREKELEQLLRVSKDVEHDKSELQTKITALETEVTTLRRQVTEAKALRGKDEEVVCPEERAHRPTDKAKSEMATTDVRARRCDCKTATTKVKFKAAKRKCSVGRHHTVLNHSIKVMSHVENLSKDGWEDVSEGSSDSETQTFQNLGTIIVETSQNISPIEDGRNQKEIDQTEGSCAQQRAMQTYSCEDIKAPQSISHNKNTKKMTFQKKSGSLQKSLHSALPARVNREKCKNLPAQKSSS
